Paper PMC4336329 (PLoS ONE, 2015)
About 14,000 (4.5%) of roughly 310,000 compounds showed an effect of 50% or more. The effect is printed as a negative number. The list shows a part of the results.

molecular target: human ether-à-go-go-related gene (hERG) potassium channel (human, UniProt Q12809); assay: primary screen, population patch clamp on CHO cells stably expressing hERG
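Further: peak tail current of the secondary pulse compared with the same well before compound.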

human ether-à-go-go-related gene (hERG) potassium channel, sequence (Q12809 whole entry, looked up): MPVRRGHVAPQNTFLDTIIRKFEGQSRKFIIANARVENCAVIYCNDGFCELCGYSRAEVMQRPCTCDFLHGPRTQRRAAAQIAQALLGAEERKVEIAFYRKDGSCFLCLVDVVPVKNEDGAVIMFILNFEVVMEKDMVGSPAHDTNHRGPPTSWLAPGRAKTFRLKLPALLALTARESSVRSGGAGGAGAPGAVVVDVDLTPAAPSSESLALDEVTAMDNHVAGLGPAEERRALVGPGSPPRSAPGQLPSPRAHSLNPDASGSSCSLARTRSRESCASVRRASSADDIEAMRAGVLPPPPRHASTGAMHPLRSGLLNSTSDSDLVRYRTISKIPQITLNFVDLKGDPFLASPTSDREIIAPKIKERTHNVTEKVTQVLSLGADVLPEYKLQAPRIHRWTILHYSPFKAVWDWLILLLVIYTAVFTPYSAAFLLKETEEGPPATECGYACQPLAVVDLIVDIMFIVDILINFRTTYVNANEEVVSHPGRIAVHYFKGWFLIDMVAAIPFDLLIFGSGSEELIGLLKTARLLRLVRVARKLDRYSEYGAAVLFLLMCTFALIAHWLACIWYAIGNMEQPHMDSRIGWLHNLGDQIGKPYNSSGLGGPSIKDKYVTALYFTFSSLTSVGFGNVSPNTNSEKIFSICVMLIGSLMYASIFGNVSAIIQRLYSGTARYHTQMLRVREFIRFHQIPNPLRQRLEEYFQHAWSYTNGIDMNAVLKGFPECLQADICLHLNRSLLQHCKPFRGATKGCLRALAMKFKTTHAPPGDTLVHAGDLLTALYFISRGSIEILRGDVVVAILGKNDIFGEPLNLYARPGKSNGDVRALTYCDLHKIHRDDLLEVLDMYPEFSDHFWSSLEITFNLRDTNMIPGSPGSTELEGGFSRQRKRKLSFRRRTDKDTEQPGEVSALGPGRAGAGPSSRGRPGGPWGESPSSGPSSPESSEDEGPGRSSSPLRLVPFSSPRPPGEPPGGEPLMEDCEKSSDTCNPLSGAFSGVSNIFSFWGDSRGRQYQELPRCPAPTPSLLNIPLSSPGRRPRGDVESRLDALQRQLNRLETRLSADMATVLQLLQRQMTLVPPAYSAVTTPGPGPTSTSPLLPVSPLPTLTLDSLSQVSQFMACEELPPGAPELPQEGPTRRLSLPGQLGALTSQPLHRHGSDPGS

Row | SMILES | hERG current change (%, negative = inhibition) at 10uM [%]
1 | COc1ccc(C(=O)C2CCCN(Cc3ccc4nonc4c3)C2)cc1F (stereo not drawn) | -41.1
2 | CC1(C)Cc2c(c(-c3ccco3)nc3n[nH]c(N)c23)CO1 | -6.9
3 | CCC1(C)CC2(CCCN(CCC(O)(c3ccccc3)c3ccccc3)C2)CCO1.Cl (stereo not drawn) | -45.7
4 | Cc1cc(C(=O)OCC(=O)NCCc2ccccc2)c2ccccc2n1 | -17.7
5 | COc1ccc(C(NC(=O)c2ccc(=O)[nH]c2)C(=O)Nc2ccc(C(C)C)cc2)cc1 (stereo not drawn) | -2.31
6 | COC(=O)C(Cc1ccccc1)NC(=O)C12CC3CC(CC(C3)C1)C2 (stereo not drawn) | -4.07
7 | Cc1ccc(S(=O)(=O)N2CCCOC2CNC(=O)C(=O)NCc2ccncc2)cc1 (stereo not drawn) | 1.48
8 | COc1cc(NC(=O)c2c(F)c(F)c(F)c(F)c2F)c(OC)cc1Cl | -0.179
9 | CCOC(=O)c1cc2ccc3ccccc3c2oc1=O | -2.36
10 | COCCCn1c(Cc2csc(Nc3cccc(Cl)c3)n2)nnc1SCC(=O)OC | -47.1
11 | Cc1cc(C)cc(OCC(=O)N(Cc2cccs2)C2CCS(=O)(=O)C2)c1 (stereo not drawn) | -39.7
12 | COCCNC(=O)C(=O)Nc1cccc(Br)c1 | 8.78
13 | COc1ccc(NC(=O)CSc2nc3[nH]ncc3c(=O)n2-c2ccccc2OC)cc1OC | 5.34
14 | O=C(CCCc1c[nH]c2ccccc12)Nc1ncccc1O | 14.7
15 | CC1CCCN(S(=O)(=O)c2ccc(CN3C(=O)c4cccnc4C3=O)cc2)C1 (stereo not drawn) | -58
16 | Cc1ccc2[nH]c(C)c(CCNCc3ccco3)c2c1.Cl | 7.23
17 | COC(=O)c1cn(Cc2cc(OC)ccc2OC)cc(F)c1=O | 12.2
18 | O=C(c1ccc(S(=O)(=O)N2CCCC2)cc1)N1CCC(CN2C(=O)c3cccc4cccc(c34)C2=O)CC1 | 10.5
19 | CCOc1ccc(/C=C2/SC(=O)NC2=S)cc1 | 17
20 | COC(=O)c1ccc(N2C(=O)CC(N3CCN(c4ccccc4)CC3)C2=O)cc1 (stereo not drawn) | 11.1
21 | COCCCNCCCCOc1ccc(Br)cc1C.O=C(O)C(=O)O | -64.6
22 | CCN(C(=O)CSc1nc2ccccc2n1CCc1ccccc1)C1CCS(=O)(=O)C1 (stereo not drawn) | -21.8

Row | SMILES | hERG current change (%, negative = inhibition) at 10uM [%]
23 | O=C(Nc1ccc(S(=O)(=O)N2CCCC2)cc1)c1ccc2c(=O)n3c(nc2c1)CCCCC3 | 9.23
24 | Fc1ccc(COc2cccc3cccnc23)cc1 | -8.3
25 | O=c1sc2ccccc2n1CCCOc1ccccc1 | -3.76
26 | Cc1ccc2[nH]c(O)c(N=NC(=O)c3ccc(NS(=O)(=O)c4cccs4)cc3)c2c1 | 2.7
27 | O=C(Cn1cnc2c(nnn2Cc2ccc(F)cc2)c1=O)NC1CCCC1 | 10.6
28 | Cc1ccc(CN(c2ccc(C(=O)N3CCCC3)cc2)S(C)(=O)=O)cc1 | 9.91
29 | O=C(/C=C/c1ccc([N+](=O)[O-])cc1)/C=C/c1ccco1 | -5.91
30 | Cc1ccccc1NC1=C(C(=O)c2ccccc2)N(C)S(=O)(=O)c2ccccc21 | 3.33
31 | Cc1ccccc1-c1noc(CNC(=O)COc2ccccc2)n1 | -10.4
32 | O=c1[nH]n(-c2ccc([N+](=O)[O-])cc2)c(=O)c2ccccc12 | 5.47
33 | NC(=O)c1cc([N+](=O)[O-])ccc1NCc1ccc(N)cc1 | 10.5
34 | NS(=O)(=O)c1cccc(NC(=O)c2cccc(Oc3ccccc3)c2)c1 | 0.243
35 | CCOC(=O)c1c(NC(=O)COC(=O)CCCOc2ccc(OC)cc2)sc(C(=O)NC)c1C | -7.04
36 | CCN1CCN(c2ccc(S(=O)(=O)N3CCCCC3)cc2NC(=O)Cc2ccc(OC)cc2)CC1 | -60.1
37 | Cc1ccc(-c2nnc(SCC(=O)Nc3ccc4c(c3)OCCO4)n2N)cc1 | -2.8
38 | O=C(OCC(=O)N1CCOCC1)c1ccccc1Cc1ccccc1 | -35.2
39 | CCCNC(=O)c1c(O)c2cccc3c2n(c1=O)CCC3 | 14.1
40 | Cc1ccc(OC(=O)c2ccccc2C(=O)OCC(F)(F)C(F)F)cc1 | 16.9
41 | COc1ccc(-c2cnn3c4c(c(C)nc23)CCN4C(C)C)cc1OC | 12.7
42 | Cc1ccc(NC(=O)C/C(N)=N/OC(=O)Nc2cccc(Cl)c2)cc1 | 7.87
43 | CC(C)Cc1ccc(C(C)C(=O)Nc2cccnc2)cc1 (stereo not drawn) | 12
44 | CCCCc1nnc2c(N(C)S(=O)(=O)c3ccccc3)nc3ccccc3n12 | -13.5

Row | SMILES | hERG current change (%, negative = inhibition) at 10uM [%]
45 | O=c1c2[nH]c3ccccc3c2ncn1Cc1ccccn1 | -0.569
46 | O=C(c1ccccc1NS(=O)(=O)c1ccc(F)cc1)N1CCOCC1 | 16.9
47 | Cc1nn(-c2cc(N3CCCCCC3)ccc2[N+](=O)[O-])c(=O)c2ccccc12 | 6.02
48 | CCC(C(=O)Nc1cc(Cl)ccc1OC)c1ccccc1 (stereo not drawn) | 7.11
49 | CC(C)n1nc(C(=O)Nc2ccc3c(c2)OCO3)c2ccccc2c1=O | 11
50 | COc1ccc2[nH]c3c(c2c1)CCNC3=O | 7.33
51 | CC(C)NC(=O)c1ccc(COc2cc(Cl)ccc2Cl)o1 | 6.03
52 | CN(CCCNC(=O)CSc1cc(=O)n(C)c2cc(Cl)ccc12)Cc1ccccc1 | -63.5
53 | Cc1cccn2c(=O)c(/C=C(\C#N)C(=O)NCc3ccco3)c(N3CCOCC3)nc12 | -50.9
54 | CCN(CCN1CCCC1)C(=O)C1CCC(=O)N(CCCN2CCOCC2)C1 (stereo not drawn) | 12.8
55 | CCc1cccc(C)c1NC(=O)COC(=O)c1ccc2c(c1)S(=O)(=O)c1ccccc1C2=O | -0.0165
56 | CN(c1ncc(C(F)(F)F)cc1Cl)N1C(=O)C2ONC3(C(=O)CC(C)(C)CC3=O)C2C1=O (stereo not drawn) | 11
57 | CC(C)Cc1ccc(/C=C/C(=O)N2CCCCC2)cc1 | -32.1
58 | CN(C(=S)Nc1ccc(SC(F)F)cc1)c1ccc(O)cc1 | -21.3
59 | CCOC(=O)N1CCN(c2ncc(C(F)(F)F)cc2Cl)CC1 | 21.4
60 | CC(C)OC(=O)CC1C(=O)NCCN1C(=S)NC(=O)c1ccccc1 (stereo not drawn) | -3.57
61 | CC(=O)NC(Cc1ccc(F)c(F)c1)C(=O)NC1CCN(c2c(Cc3ccccc3)c(C)nc3ncnn23)CC1 (stereo not drawn) | -58.7
62 | O=S(=O)(c1ccccc1)N1CCC(n2cnc3ccccc32)CC1 | -64
63 | COc1ccc2c(c1)CCc1c(C(=O)N(C)c3ccccc3)noc1-2 | 1.39
64 | Cc1c(C(=O)NNC(=O)c2ccncc2)oc2ccccc12 | -5.92
65 | COc1ccc(CCC(=O)NCC2CCCCC2)cc1OC | 13.4
66 | Cc1ccc(C)c(NC(=O)C2CC(O)CN2C(=O)OCc2ccccc2)c1 (stereo not drawn) | 3.96

Row | SMILES | hERG current change (%, negative = inhibition) at 10uM [%]
67 | FC(F)(F)c1cccc(Cc2noc(CN3CCCC(CN4CCCC4)C3)n2)c1 (stereo not drawn) | -45.5
68 | COc1ncccc1C(=O)N1CCCC(C(=O)c2cccc(OC(C)C)c2)C1 (stereo not drawn) | 1.87
69 | COc1cc(C(=O)NC(=S)Nc2ccccc2[N+](=O)[O-])cc(OC)c1OC | 12.7
70 | Cc1ccc(C(=O)OCC(=O)NNC(=O)c2cccs2)c(O)c1 | -3.54
71 | Cc1cc(C)n(C(=O)c2cc(F)c(F)cc2C)n1 | 4.1
72 | CN(CCOc1ccccc1)C(=O)C1CCN(C(=O)c2ccc(Cl)cc2)CC1 | -47.9
73 | CCN1CCN(CCCNC(=O)c2ccc(/C=C3/Oc4ccccc4N(Cc4cccc(C)c4)C3=O)cc2)CC1 | -19.1
74 | O=C(Nc1nc2ccccc2n1CCN1CCOCC1)c1ccccc1 | -6.69
75 | Cc1ccc(NC(=O)C2CCCN2S(=O)(=O)c2ccc3c(c2)n(C)c(=O)c(=O)n3C)cc1 (stereo not drawn) | -11.4
76 | C/C(=N/N=C1\SCC(=O)N1c1ccccc1)c1ccc(C)cc1 | 14.3
77 | CCOC(=O)N1CCN(C2CCCN(C(=O)c3ccccc3N(C)C)C2)CC1 (stereo not drawn) | 10.1
78 | Nc1nc(COC(=O)C2CC(=O)N(Cc3ccccc3)C2)nc(Nc2ccccc2)n1 (stereo not drawn) | -51.9
79 | O=C(NC1CCSC1=O)c1cccc(C(=O)NC2CCSC2=O)c1 (stereo not drawn) | 5.68
80 | CCCCC(=O)N/N=C/c1c(O)n(CC)c(=S)[nH]c1=O | 2.34
81 | COc1ccc(-c2nsc3c(N4CCCCC4)ncnc23)cc1 | -18.1
82 | CCSc1nnc(NC(=O)c2cccc(OCc3c(C)noc3C)c2)s1 | -4.73
83 | O=C(COc1ccccc1C(=O)O)NC1CCCc2ccccc21 (stereo not drawn) | 6.21
84 | O=C(OCC(=O)N1CCN(c2ccccc2)CC1)c1cccs1 | 5.21
85 | Cc1ccc(-c2csc(NC(=O)C3CC(=O)N(Cc4ccco4)C3)n2)cc1 (stereo not drawn) | -25.5
86 | Cc1nn(Cc2ccccc2)c(C)c1C(=O)Nc1ccc(N2CCOCC2)cc1 | 3.71
87 | O=C(O)c1ccc(-c2ccc(/C=N/Nc3ccc([N+](=O)[O-])cc3)o2)cc1 | 22.1
